Measurements from the supplement of paper PMC8728848.
Some of the results follow.

Legend:
Test in all cases: glycan array binding signal (z-score within array); higher = stronger binding
Conditions in all cases: glycan notation: IUPAC condensed, linker removed
[1] = target: Gal(b1-4)GlcNAc(b1-3)Gal(b1-4)GlcNAc(b1-3)[Gal(b1-4)GlcNAc(b1-3)Gal(b1-4)GlcNAc(b1-6)]GalNAc
Method in brief: (§1)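 Arrays were curated from the Consortium for Functional Glycomics database, 3228 in total, and kept only where the protein sequence was available. Binding is expressed as a within-array Z-score. This score was averaged across arrays of the same protein sequence at different concentrations or buffers and across linkers, and negative values can be read as non-binding.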

[2] = target: Gal(b1-4)GlcNAc(b1-3)Gal(b1-4)GlcNAc(b1-6)[Gal(b1-3)]GalNAc
Method in brief: as §1

[3] = target: Gal(b1-4)GlcNAc(b1-3)Gal(b1-4)[Fuc(a1-3)GlcNAc(b1-6)]Gal(b1-4)Glc
Method in brief: as §1

[4] = target: Gal(b1-4)GlcNAc(b1-3)Gal(b1-4)[Fuc(a1-3)]GlcNAc(b1-3)Gal(b1-4)[Fuc(a1-3)]GlcNAc
Method in brief: as §1

[5] = target: Gal(b1-4)GlcNAc(b1-3)GalNAc
Method in brief: as §1

[6] = target: Gal(b1-4)GlcNAc(b1-3)[Fuc(a1-3)GlcNAc(b1-6)]Gal(b1-4)Glc
Method in brief: as §1

[7] = target: Gal(b1-4)GlcNAc(b1-3)[Gal(b1-4)GlcNAc(b1-6)]Gal(b1-4)GlcNAc
Method in brief: as §1

[8] = target: Gal(b1-4)GlcNAc(b1-3)[Gal(b1-4)GlcNAc(b1-6)]GalNAc
Method in brief: as §1

[9] = target: Gal(b1-4)GlcNAc(b1-3)[GlcNAc(b1-6)]Gal(b1-4)GlcNAc
Method in brief: as §1

[10] = target: Gal(b1-4)GlcNAc(b1-6)Gal(b1-4)GlcNAc
Method in brief: as §1

[11] = target: Gal(b1-4)GlcNAc(b1-6)GalNAc
Method in brief: as §1

[12] = target: Gal(b1-4)GlcNAc(b1-6)[Gal(b1-3)]GalNAc
Method in brief: as §1

[13] = target: Gal(b1-4)GlcNAc(b1-6)[Gal(b1-4)GlcNAc(b1-3)]GalNAc
Method in brief: as §1

[14] = target: Gal(b1-4)GlcNAc6P
Method in brief: as §1

[15] = target: Gal(b1-6)Gal
Method in brief: as §1

[16] = target: Gal3S(b1-3)GalNAc
Method in brief: as §1

[17] = target: Gal3S(b1-3)GlcNAc
Method in brief: as §1

[18] = target: Gal3S(b1-3)[Fuc(a1-4)]GlcNAc
Method in brief: as §1

[19] = target: Gal3S(b1-4)Glc
Method in brief: as §1

[20] = target: Gal3S(b1-4)Glc6S
Method in brief: as §1

[21] = target: Gal3S(b1-4)GlcNAc
Method in brief: as §1

[22] = target: Gal3S(b1-4)GlcNAc6S
Method in brief: as §1

[23] = target: Gal3S(b1-4)[Fuc(a1-3)]Glc
Method in brief: as §1

[24] = target: Gal3S(b1-4)[Fuc(a1-3)]Glc6S
Method in brief: as §1

[25] = target: Gal3S(b1-4)[Fuc(a1-3)]GlcNAc
Method in brief: as §1

[26] = target: Gal3S(b1-4)[Fuc(a1-3)]GlcNAc6S
Method in brief: as §1

[27] = target: Gal3S4S(b1-4)GlcNAc
Method in brief: as §1

[28] = target: Gal3S6S(b1-4)GlcNAc
Method in brief: as §1

[29] = target: Gal3S6S(b1-4)GlcNAc6S
Method in brief: as §1

[30] = target: Gal4S(b1-4)GlcNAc
Method in brief: as §1

[31] = target: Gal4S6S(b1-4)GlcNAc
Method in brief: as §1

[32] = target: Gal6P(b1-4)GlcNAc
Method in brief: as §1

[33] = target: Gal6S(b1-3)GlcNAc
Method in brief: as §1

[34] = target: Gal6S(b1-3)GlcNAc6S
Method in brief: as §1

[35] = target: Gal6S(b1-4)Glc
Method in brief: as §1

[36] = target: Gal6S(b1-4)Glc6S
Method in brief: as §1

[37] = target: Gal6S(b1-4)GlcNAc
Method in brief: as §1

B1: Siglec-7-SA-PE-180 (Homo sapiens), Q9Y286 (protein)
chain: MLLLLLLPLLWGRERVEGQKSNRKDYSLTMQSSVTVQEGMCVHVRCSFSYPVDSQTDSDPVHGYWFRAGNDISWKAPVATNNPAWAVQEETRDRFHLLGDPQTKNCTLSIRDARMSDAGRYFFRMEKGNIKWNYKYDQLSVNVTALTHRPNILIPGTLESGCFQNLTCSVPWACEQGTPPMISWMGTSVSPLHPSTTRSSVLTLIPQPQHHGTSLTCQVTLPGAGVTTNRTIQLNVSYPPQNLTVTVFQGEGTASTALGNSSSLSVLEGQSLRLVCAVDSNPPARLSWTWRSLTLYPSQPSNPLVLELQVHLGDEGEFTCRAQNSLGSQHVSLNLSLQQEYTGKMRPVSGVLLGAVGGAGATALVFLSFCVIFIVVRSCRKKSARPAADVGDIGMKDANTIRGSASQGNLTESWADDNPRHHGLAAHSSGEEREIQYAPLSFHKGEPQDLSGQEATNNEYSEIKIPK
glycan array binding signal (z-score) [1]: 0.663
glycan array binding signal (z-score) [2]: 0.097
glycan array binding signal (z-score) [3]: -0.383
glycan array binding signal (z-score) [4]: 0.047
glycan array binding signal (z-score) [5]: -0.393
glycan array binding signal (z-score) [6]: -0.136
glycan array binding signal (z-score) [7]: -0.026
glycan array binding signal (z-score) [8]: -0.453
glycan array binding signal (z-score) [9]: -0.413
glycan array binding signal (z-score) [10]: -0.178
glycan array binding signal (z-score) [11]: -0.188
glycan array binding signal (z-score) [12]: -0.175
glycan array binding signal (z-score) [13]: 0.327
glycan array binding signal (z-score) [14]: 0.085
glycan array binding signal (z-score) [15]: -0.239
glycan array binding signal (z-score) [16]: 0.178
glycan array binding signal (z-score) [17]: 0.327
glycan array binding signal (z-score) [18]: 0.122
glycan array binding signal (z-score) [19]: -0.073
glycan array binding signal (z-score) [20]: 0.011
glycan array binding signal (z-score) [21]: 0.03
glycan array binding signal (z-score) [22]: 1.69
glycan array binding signal (z-score) [23]: -0.117
glycan array binding signal (z-score) [24]: 0.456
glycan array binding signal (z-score) [25]: 0.257
glycan array binding signal (z-score) [26]: 0.218
glycan array binding signal (z-score) [27]: 0.84
glycan array binding signal (z-score) [28]: 0.345
glycan array binding signal (z-score) [29]: 0.081
glycan array binding signal (z-score) [30]: -0.277
glycan array binding signal (z-score) [31]: -0.029
glycan array binding signal (z-score) [32]: 0.398
glycan array binding signal (z-score) [33]: 0.283
glycan array binding signal (z-score) [34]: 2.28
glycan array binding signal (z-score) [35]: -0.395
glycan array binding signal (z-score) [36]: -0.108
glycan array binding signal (z-score) [37]: -0.352
